From PubChem BioAssay AID1645882 (National Center for Advancing Translational Sciences (NCATS), 2021)
Hit rate of the full screen: of about 16,000 compounds, about 120 (0.75%) were called active. Another 4% or so got no clear call; they are omitted. Calls come from the whole dose curve; as a rule, active = well fitted inhibition curve with a large enough effect; inconclusive = small, poorly fitted or top-dose-only effect; inactive = no such curve, though single readings can be large or run the other way. The list shows a part of the results.

Biological target: Rap guanine nucleotide exchange factor 3 (Homo sapiens) (UniProt O95398)
Chain of UniProt O95398 (O95398 whole entry, looked up): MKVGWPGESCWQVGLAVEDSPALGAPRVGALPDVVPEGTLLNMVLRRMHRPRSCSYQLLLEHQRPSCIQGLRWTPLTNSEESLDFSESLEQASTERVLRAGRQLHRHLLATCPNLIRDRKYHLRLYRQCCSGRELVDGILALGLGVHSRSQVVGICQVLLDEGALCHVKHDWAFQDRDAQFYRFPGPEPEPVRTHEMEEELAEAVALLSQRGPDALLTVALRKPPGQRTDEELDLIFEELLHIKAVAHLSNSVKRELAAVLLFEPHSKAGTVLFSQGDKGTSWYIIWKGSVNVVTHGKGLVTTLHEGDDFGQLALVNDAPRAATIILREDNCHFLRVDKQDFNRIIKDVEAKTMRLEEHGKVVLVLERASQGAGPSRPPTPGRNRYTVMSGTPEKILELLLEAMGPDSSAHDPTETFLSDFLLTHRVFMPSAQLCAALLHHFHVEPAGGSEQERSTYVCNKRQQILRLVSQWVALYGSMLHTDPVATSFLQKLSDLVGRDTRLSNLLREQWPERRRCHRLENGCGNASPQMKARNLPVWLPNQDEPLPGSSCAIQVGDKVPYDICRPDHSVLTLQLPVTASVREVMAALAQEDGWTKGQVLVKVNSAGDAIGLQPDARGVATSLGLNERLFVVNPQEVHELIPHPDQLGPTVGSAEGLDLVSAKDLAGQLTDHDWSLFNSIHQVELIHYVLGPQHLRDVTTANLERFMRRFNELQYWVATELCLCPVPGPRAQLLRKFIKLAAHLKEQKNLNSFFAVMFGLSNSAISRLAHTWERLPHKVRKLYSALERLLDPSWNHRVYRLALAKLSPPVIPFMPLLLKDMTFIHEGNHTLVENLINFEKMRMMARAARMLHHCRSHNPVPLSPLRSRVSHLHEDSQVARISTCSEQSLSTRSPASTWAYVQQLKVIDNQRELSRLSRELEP
Experiment: Validation qHTS for antagonist of cAMP-regulated guanine nucleotide exchange factor 3 (EPAC1); note: nearly all actives have a fitted effect of over 75% in size
Settings: EPAC1 Rap1B-BODIPY-GDP exchange, fluorescence; series mostly up to 150 µM; activity change, negative = inhibition: at the top concentration
Procedure, shortened: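 EPAC1 (100 nM) mixed with 250 nM RAP1B-BODIPY-GDP and 50 uM GDP; compounds in concentration series, 5 min at room temperature. Fluorescence (ex 480/em 540 nm) read every 5 min for 30 min; normalized to ATA control and DMSO.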
Potency is the fitted concentration of half-maximal effect.

Row | SMILES | activity change, negative = inhibition | Potency
1 | O=C(c1cccc(Cn2cccn2)c1)N1CCOc2c(cc(-c3csc4ccccc34)cc2OC2CCOC2)C1 (stereo not given) | inactive: -10.8% | 
2 | O=C(c1ccco1)N1CCC2(CCCN(c3ccccc3)C2)CC1 | inactive: 20.5% | 
3 | CCC[C@H]1COCCS(=O)(=O)N1Cc1ccc(F)cc1 | inactive: -18.8% | 
4 | Cc1ccccc1-c1cncnc1Nc1ccccc1 | inactive: -3.15% | 
5 | CN(C)CCCc1cc(C(=O)Nc2ccc(-c3ccncc3)cc2)ccc1O | inactive | 
6 | CCNc1ncc2nc(-c3ccccc3)c(=O)n(Cc3ccc(F)cc3)c2n1 | inactive: -6.84% | 
7 | NC1[C@H]2CN(c3nc4c(cc3F)c(=O)c(C(=O)O)cn4-c3ccc(F)cc3F)C[C@@H]12 (stereo not given in full) | inactive: 9.1% | 
8 | CC(=O)OCC(=O)Nc1cc(C#N)cc(NC(=O)COC(C)=O)c1Cl | inactive: 22.2% | 
9 | Cc1noc(C)c1C(=O)N1CCC2(CCCN(c3ncccn3)C2)CC1 | inactive: 4.31% | 
10 | Cn1c(=O)c2c(nc(/C=C/c3cccc(Cl)c3)n2C)n(C)c1=O | inactive | 
11 | CCNc1ncc2nc(-c3ccc(OC)cc3)c(=O)n(CCC#N)c2n1 | inactive: 23.4% | 
12 | O=C(c1ccncc1)N1CCC2(CC1)CCN(c1cccc(-c3ccccc3)c1)CC2 | inactive: 1.52% | 
13 | Cn1cc(-c2nc3cnc(Oc4ccccc4)nc3n(CCC#N)c2=O)c2ccccc21 | inactive: 27.2% | 
14 | CCc1nn(CCCN2CCN(c3cccc(Cl)c3)CC2)c(=O)n1CCOc1ccccc1 | inactive | 
15 | O=c1c(O)cc(C2Oc3cc(O)cc(O)c3CC2O)cc2c(C3Oc4cc(O)cc(O)c4CC3O)cc(O)c(O)c12 (stereo not given) |  | active: 39.8 µM
16 | CO[C@H]1[C@H](NC(=O)c2cccc(F)c2)c2ccccc2C12CCN(Cc1ccco1)CC2 | inactive: 7.18% | 
17 | CCCCCC(O)CCCC(=O)O (stereo not given) | inactive | 
18 | C[C@@H]1CCN=C(N)S1 | inactive: -9.46% | 
19 | COc1cccc(-c2cncnc2NCc2ccccc2OC)c1 | inactive: 8.57% | 
20 | COCCn1c(=O)c(-c2ccccc2)nc2cnc(Nc3cccc(OC)c3)nc21 | inactive: 24.5% | 
21 | O=C(C[n+]1cccc(Br)c1)c1ccc(Br)cc1 | inactive: 10.8% | 
22 | CCCCC(=O)O[C@]1(C(=O)CO)[C@H](C)C[C@H]2[C@@H]3CCC4=CC(=O)C=C[C@]4(C)[C@@]3(F)[C@@H](O)C[C@@]21C | inactive: 0.544% | 

Row | SMILES | activity change, negative = inhibition | Potency
23 | COc1cc(N)c(Cl)cc1C(=O)OCCN1CCCCC1 | inactive: 2.29% [at 75.8 µM] | 
24 | COc1cccc(Cn2c(=O)c(-c3cccc(C#N)c3)nc3cnc(N4CCN(C)CC4)nc32)c1 | inactive: 4.61% | 
25 | CCCCC(=O)OCC(=O)[C@H]1[C@H](C)C[C@H]2[C@@H]3C[C@H](F)C4=CC(=O)C=C[C@]4(C)[C@@]3(F)[C@@H](O)C[C@@]21C | inactive: -10.3% | 
26 | Cc1cc(C)nc(-c2cccc3c2OC(CNC(=O)C2CCOC2)C3)n1 (stereo not given) | inactive: 13.4% | 
27 | CC1c2cccc(O)c2C(O)=C2C(=O)[C@]3(O)C(O)=C(C(N)=O)C(=O)C(N(C)C)C3C(O)C21 (stereo not given in full) | inactive: 10.5% | 
28 | O=c1c(-c2ccccc2)nc2cnc(N3CCOCC3)nc2n1Cc1cccs1 | inactive: 6.19% | 
29 | Cc1c(Nc2ncccc2C(=O)O)cccc1C(F)(F)F | inactive | 
30 | CC[C@H](c1ccc(O)cc1)[C@@H](CC)c1ccc(O)cc1 | inactive: -11.3% [at 75.8 µM] | 
31 | O=C(Cc1ccccc1)NO | inactive: 6.94% | 
32 | CN(Cc1ccon1)C(=O)c1cnn(-c2nccc(-c3ccc4c(c3)OCO4)n2)c1C1CC1 | inactive: 6.11% | 
33 | CCN(Cc1ccncc1)Cc1ccc2c(c1)CN(C(=O)c1ccc(OC)cc1)CCO2 | inactive: 17.1% | 
34 | O=C(Nc1cccc(C2=NCCN2)c1)Nc1cccc(C2=NCCN2)c1 | inactive: -6.27% | 
35 | Nc1ncnc2c1ncn2C1CCCC1 | inactive: 7.44% [at 75.8 µM] | 
36 | CCCOC(=O)c1ccc(N)cc1 | inactive: -4.04% | 
37 | Cc1cc(N(C)C)cc(C)c1/C=C/c1ccnc2ccccc12 | inactive: -6.74% | 
38 | Cc1ccc(C(=O)N(Cc2cc3cccc(C)c3nc2N(C)C)CC2CCCO2)cc1 (stereo not given) | inactive: 0.406% | 
39 | COc1cc(C)c(CN2CCc3nnc(C(C)NC(=O)c4cc(F)ccc4F)n3CC2)cc1C (stereo not given) | inactive: 10.9% | 
40 | COCc1c(C(=O)NC2CCCC2)cnn1-c1nccc(-c2ccco2)n1 | inactive: 5.94% | 
41 | C[C@]12CCC(=O)C=C1CC[C@@H]1[C@@H]2[C@@H](O)C[C@@]2(C)[C@H]1CC[C@]2(O)C(=O)COP(=O)(O)O | inactive: 27% | 
42 | Cc1c([N+](=O)[O-])cnc2ccccc12 | inactive: -15.3% | 
43 | COC(=O)c1cccc(C(=O)N2CCc3c(cnc(C)c3CNC(=O)c3ccsc3)C2)c1 | inactive: 8.68% | 
44 | O=C1NC(c2cccc([N+](=O)[O-])c2)=CCN1c1ccccc1O | inactive | 

Row | SMILES | activity change, negative = inhibition | Potency
45 | CC(=O)OCC(=O)[C@@]1(O)CC[C@H]2[C@@H]3CCC4=CC(=O)C=C[C@]4(C)[C@H]3[C@@H](O)C[C@@]21C | inactive: 26.8% | 
46 | CN(C)c1ncnc2ccc(-c3cccnc3)cc12 | inactive: 1.85% | 
47 | CC(=O)Nc1cc(C(=O)N2CCN(C(=O)c3ccco3)CC2)cc2ncn(CCc3ccccn3)c12 | inactive: 9.96% | 
48 | Cc1nc2ccccc2nc1CN1CCOc2ccc(C(C)(O)COc3ccccc3)cc2C1 (stereo not given) | inactive: -13.5% | 
49 | O=c1c(CCc2ccccc2)nc2cnc(N3CCNCC3)nc2n1CCc1ccccc1 | inactive: 7.55% | 
50 | COc1ccccc1-c1nccc(NCc2cccs2)n1 | inactive: 12.2% | 
51 | O=c1c(-c2ccccc2)nc2cncnc2n1-c1ccccc1 | inactive: 16.2% | 
52 | CS(=O)(=O)N1CCC[C@@]2(CCN(Cc3ccccc3)C2)C1 | inactive: 5.44% | 
53 | C1CCN2CC3CC(CN4CCCC[C@@H]34)C2C1 (stereo not given in full) | inactive: -11.7% | 
54 | O=C(c1cnccn1)N1CCC[C@@]2(CCN(C(c3ccccc3)c3ccccc3)C2)C1 | inactive: -7.92% | 
55 | N#Cc1cccc(NC(=O)N2CC[C@@]3(CCCN(C(=O)c4cccc(F)c4)C3)C2)c1 | inactive: -9.14% | 
56 | NC(=Nc1ccccc1)Nc1ccccc1 | inactive | 
57 | CCCN(CC1CC1)c1nc(C)nc(Nc2c(Cl)cc(Cl)cc2Cl)c1Cl | inactive | 
58 | O=C(NCCc1nnc2n1CCN(Cc1ccc(F)c(F)c1)CC2)c1ccoc1 | inactive: 16.5% | 
59 | Nc1nc(Cl)c2ncn(C3OC(CO)C(O)C3O)c2n1 (stereo not given) | inactive: 8.74% | 
60 | COc1ccccc1-c1ccnc(-n2ncc(C(=O)NCCCN3CCOCC3)c2C)n1 | inactive: 18.4% | 
61 | O=S(=O)(c1ccccc1)N1CCC2(CCN(c3ccncc3)CC2)CC1 | inactive: 18.4% | 
62 | CCN1CCN(C(=O)c2cc(NC(=O)COC)cc3nc(-c4ccncc4)n(C)c23)CC1 | inactive: -7.46% | 
63 | O=C1OC(C(O)CO)C(O)=C1O (stereo not given) | inactive: 8.97% | 
64 | CCN(CC)C1CCN(C(=O)c2cnn(-c3nccc(-c4ccco4)n3)c2C(C)C)C1 (stereo not given) | inactive: 14.3% | 
65 | COc1ccccc1-c1nccc(-n2ccnc2)n1 | inactive: 27.9% | 
